20 compounds from PubChem BioAssay AID328 (DTP/NCI, 2004) can be followed below.

In experiment [1] the test system is BDF1 mice, P388 leukemia ip, median survival T/C. As to the kind of experiment: NCI In Vivo Anticancer Drug Screen. Data for tumor model P388 Leukemia (intraperitoneal) in B6D2F1 (BDF1) mice. The settings on record: endpoint: median survival time, higher = longer survival. In a few lines: (§1)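 Mice carrying the transplantable tumour receive compound or vehicle. Survival is followed in each arm, and the treated measure is divided by the vehicle measure.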

Experiment [2] concerns BDF1 mice, P388 leukemia ip. The experiment is described as above. The settings on record: endpoint: mean survival time; dose: 0.75 mg/kg/injection; schedule: Q01DX010 (ip); vehicle: saline; higher = longer survival. In a few lines:
as §1

SMILES strings stand for the structures. Inconclusive results and toxic doses are left out. For part of its entries the source gives two or more results. The other results are left out here. The source may hold further records. The values listed for one entry are repeated measurements across runs, samples, wells, individuals or studies.

As to `O=C1C(Cl)=C(N2CC2)C(=O)C(Cl)=C1N1CC1`, the T/C in experiment [1] (dose: 2.5 mg/kg/injection, schedule: Q01DX009 (ip), vehicle: saline) was 121 % of control and 159 % of control.
As for `O=c1[nH]c(=O)n(C2CC(O)C(CO)O2)cc1F` (stereo not given), the T/C in experiment [1] (dose: 100.0 mg/kg/injection, schedule: Q01DX009 (ip), vehicle: water) is recorded as 104 % of control, 122 % of control, 200 % of control.
Take `NC(=S)/N=C\C(CC(O)C(O)C(O)CO)=N\NC(N)=S` (stereo not given): in experiment [1] (dose: 25.0 mg/kg/injection, schedule: Q01DX009 (ip), vehicle: saline with Tween-80), the T/C is 89 % of control, 97 % of control, 170 % of control.
On to `O=C1NC(c2ccccc2)(c2ccccc2)C(=O)N1CCN(CCCl)CCCl`, for which the T/C in experiment [1] (dose: 75.0 mg/kg/injection, schedule: Q04DX003 (ip), vehicle: saline with Tween-80) was 90 % of control and 172 % of control.
With `CCCCOP(=O)(N1CC1CC)N1CC1CC` (stereo not given), the T/C in experiment [1] (dose: 200.0 mg/kg/injection, schedule: Q04DX003 (ip), vehicle: saline) is 124 % of control and 176 % of control.
On to `COc1cc2cc[n+]3c(C)c4ccc(OC)c(OC)c4cc3c2cc1OC` (tested in a mixture with another compound), for which the T/C in experiment [1] (dose: 10.0 mg/kg/injection, schedule: Q01DX009 (ip), vehicle: saline) is 115 % of control and 157 % of control.
As to `C(/C=C\c1ccccc1)=Nc1ccccc1`, in experiment [1] (dose: 200.0 mg/kg/injection, schedule: Q01DX009 (ip), vehicle: saline with Tween-80), the T/C was 115 % of control and 150 % of control.
As to `CCOC1OCN(C)CC1(C)C` (stereo not given), the T/C in experiment [1] (dose: 44.0 mg/kg/injection, schedule: Q01DX009 (ip), vehicle: saline) was 111 % of control and 154 % of control.
`CCC1(O)CC(OC2CC(N(C)C)C(OC3CC4OC5CC(=O)C(C)OC5OC4C(C)O3)C(C)O2)c2c(cc3c(c2O)C(=O)c2c(O)ccc(O)c2C3=O)C1C(=O)OC` (stereo not given): the T/C in experiment [2] was 86 % of control and 188 % of control.
Regarding `O=C1C=C(C2OC(CO)C(O)C2O)C(=O)N1` (stereo not given), the T/C in experiment [1] (dose: 4.0 mg/kg/injection, schedule: Q01DX010 (ip), vehicle: saline) is 110 % of control, 150 % of control, 155 % of control.
In the case of `NC(=S)N/N=C/c1ccccn1`, the T/C in experiment [1] (dose: 3.75 mg/kg/injection, schedule: Q01DX010 (ip), vehicle: saline) was 108 % of control and 155 % of control.
Regarding `COc1cc2cc3c4cc(OC)c(OC)cc4cc[n+]3c(C)c2cc1OC`, the T/C in experiment [1] (dose: 50.0 mg/kg/injection, schedule: Q01DX009 (ip), vehicle: saline with Tween-80) was 100 % of control and 163 % of control.
Turning to `CC[N+](CC)(CC)CC`, the T/C in experiment [1] (dose: 4.0 mg/kg/injection, schedule: Q01DX009 (ip), vehicle: saline with Tween-80) was 118 % of control and 155 % of control.
Regarding `Nc1nc2n[nH]nc2c(=O)[nH]1`, the T/C in experiment [1] (dose: 50.0 mg/kg/injection, schedule: Q01DX010 (ip), vehicle: alkali diluted with saline) is 122 % of control and 155 % of control.
Consider `C=C(NC(=O)C(=C)NC(=O)c1csc(C2=NC3c4csc(n4)C4NC(=O)c5csc(n5)C(C(C)(O)C(C)O)NC(=O)C5CSC(=N5)/C(=C/C)NC(=O)C(C(C)O)NC(=O)c5csc(n5)C3(CC2)NC(=O)C(C)NC(=O)C(=C)NC(=O)C(C)NC(=O)C(C(C)CC)NC2C=Cc3c(C(C)O)cc(nc3C2O)C(=O)OC4C)n1)C(N)=O` (stereo not given), for which, in experiment [1] (dose: 400.0 mg/kg/injection, schedule: Q01DX009 (ip), vehicle: Klucel (hydroxypropylcellulose) (HPC)), the T/C was 121 % of control, 183 % of control, 184 % of control.
On to `CCOC(=O)C(Cc1ccc(N(CCCl)CCCl)cc1)NC(=O)C(Cc1ccccc1)NC=O` (stereo not given), for which, in experiment [1] (dose: 300.0 mg/kg/injection, schedule: Q04DX003 (ip), vehicle: saline with Tween-80), the T/C is 95 % of control and 172 % of control.
Consider `C/C=C/C1=C(Cl)C(=O)[C@@H](Cl)[C@@]1(O)C(=O)OC`, for which the T/C in experiment [1] (dose: 10.0 mg/kg/injection, schedule: Q01DX009 (ip), vehicle: saline with Tween-80) was 98 % of control and 151 % of control.
Turning to `COc1ccc(C(SCC(N)C(=O)O)(c2ccccc2)c2ccccc2)cc1` (stereo not given), the T/C in experiment [1] (dose: 9.3 mg/kg/injection, schedule: Q01DX009 (ip), vehicle: Klucel (hydroxypropylcellulose) (HPC)) was 118 % of control and 170 % of control.
With `CC1(C)C=C(C(Br)c2ccc(Cl)cc2)C(=O)c2ccccc21` (stereo not given), in experiment [1] (dose: 200.0 mg/kg/injection, schedule: Q01DX009 (ip), vehicle: Klucel (hydroxypropylcellulose) (HPC)), the T/C is 95 % of control and 150 % of control.
Consider `CCCCCCCC[N+](C)(CCCCCCCC)CCCCCCCC`, for which, in experiment [1] (dose: 0.64 mg/kg/injection, schedule: Q01DX009 (ip), vehicle: saline), the T/C was 104 % of control, 116 % of control, 166 % of control.
